Data as given in PubChem BioAssay AID493208 (National Center for Advancing Translational Sciences (NCATS), 2011).
The campaign covered roughly 44,000 compounds. About 340 (0.77%) were called active. About 5% were inconclusive and are not listed. The call rests on the fitted dose curve; in most records, active means well fitted inhibition curve with a large enough effect; inconclusive means small, poorly fitted or top-dose-only effect; inactive means flat fitted curve, though single readings scatter. The list shows a part of the results.

experiment: Acumen qHTS Assay for Inhibitors of the mTORC1 Signaling Pathway in MEF (Tsc2-/-, p53-/-) Cells: Sytravon; conditions: phospho-rpS6 immunofluorescence/PI, 24 h; series mostly up to 38.3 µM; activity change, negative = inhibition: at the top concentration;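 further: plate controls were DMSO for no effect and rapamycin for full effect; nearly all actives have a fitted effect of over 50% in size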
How it was run: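 Plate MEFs (Tsc2-/-, p53-/-, empty vector) in DMEM/10% FBS; after 24 h add compound, incubate 24 h at 37 degree Celsius; fix in PFA/TX-100, block, stain phospho-rpS6 and 10 uM PI; scan at 488 nm; report % positive cells.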

Activity change, negative = inhibition, inactive:
O=C(Nc1ccccc1C(=O)OCc1cc(=O)n2c3c(sc2n1)CCCC3)c1ccccc1 0.235%
O=C(CCS(=O)(=O)c1ccccc1)N(Cc1cccnc1)c1nc2c(Cl)cccc2s1 -3.59%
CCCCCNC(=O)c1cc2c(=O)n3ccccc3nc2n1C -8.58%
Clc1cccc(-n2ncc3c(NCCc4ccccc4)ncnc32)c1 3.04%
CCCOc1ccc(C2C(=O)N(C3CCCCC3)CC(=O)N2CCc2ccccc2)cc1OC (configuration not stated) 0%
CCOC(=O)c1cccc(NS(=O)(=O)c2cc(-c3cnc(C)o3)ccc2OC)c1 4.69%
CN(C)C(=O)c1ccc(NC(=O)Cn2nc(-c3ccccc3)c3ccccc3c2=O)cc1 0.307%
CCOC(=O)c1c(NC(=O)COc2cc(C)ccc2C(C)C)sc2c1CCCC2 -1.55%
Cc1cccc(NC(=O)c2c(NC(=O)c3cccs3)sc3c2CCC(C)C3)c1 (configuration not stated) 5.28%
CCCCNC(=O)C(CC)Sc1nnc(-c2ccc(F)cc2)c(-c2ccc(F)cc2)n1 (configuration not stated) -2.13%
CC(=O)Nc1ccc(OCc2cc(=O)n3ccccc3n2)cc1 1.28%
COc1cccc(CN2CCc3nc(Nc4ccc5c(c4)OCCO5)ncc3C2)c1OC 0%
COc1ccccc1N1CCN(C(CNC(=O)C(=O)NCCN(C)C)c2cccnc2)CC1 (configuration not stated) 7.93%
CCOc1ccc(NC(=O)c2cc(=O)c3cc(CC)ccc3o2)cc1 6.86%
Cc1cccc(NC(=O)CSc2nc(=O)n(Cc3ccncc3)c3c2CCC3)c1C -6.34%
CCc1ccc(C2=C(C)C(N3CCC(C(=O)Nc4cccc(OC)c4)CC3)=NS2(=O)=O)cc1 -6.18%
Oc1ccc(/C=C/c2nc(-c3ccccc3O)n(-c3ccccc3)n2)c(O)c1 0.649%
CCOc1ccc(NC(=O)CSc2nc(-c3cccs3)cc(C(F)(F)F)c2C#N)cc1 1.98%
COc1ccc(CCNC(=O)c2ccc3c(c2)sc2nc(-c4ccc(C)cc4)cn23)cc1OC 3.23%
CCOc1ccc(Nc2c(S(=O)(=O)c3ccc(C)cc3)cnc3cc(OC)c(OC)cc23)cc1 0.167%
COc1ccccc1NC(=O)CSC1=Nc2ccccc2C2=NC(CC(=O)NCCc3ccccc3)C(=O)N12 (configuration not stated) 0.25%
COc1cc(NS(=O)(=O)c2ccc3c(c2)CC(=O)N3)cc(OC)c1OC -1.3%
CCc1ccccc1NC(=O)Cn1nnc(-c2nc(-c3ccncc3)no2)c1N 0%
Cc1ccc(NC(=O)C2CCN(S(=O)(=O)c3ccc4c(c3)CCCC(=O)N4)CC2)c(Cl)c1 1.82%
O=C(NCc1ccccc1Cl)c1ccc2c(c1)nnn2C1CCCC1 5.7%
O=C(NC1(C(F)(F)F)C(=O)Nc2c1c(=O)[nH]c(=O)n2CCc1ccccc1)c1ccc(Cl)cc1 (configuration not stated) 0.737%
CCOc1ccc(NC(=O)CN2CCN(CC(=O)Nc3ccc(N(CC)CC)cc3)CC2)cc1 1.72%
COc1cc(NS(=O)(=O)c2ccc3[nH]c(=O)[nH]c3c2)cc(OC)c1 7.34%
CCCCC(=O)Nc1ccc2nc(SCC(=O)N3CCOCC3)sc2c1 -0.689%
Cc1ccc(NC(=O)c2c(C)oc3ncn(C)c(=O)c23)cc1F 2.08%
COc1cccc2c1Oc1ncccc1N(c1ccc(C(=O)NCc3ccccc3C)s1)C2 2.72%
CC1=C(c2ccc(C(C)C)cc2)S(=O)(=O)N=C1N1CCN(c2ccc(F)cc2)CC1 -0.988%
O=C(CCCc1ccccc1)NC1CC(=O)N(c2ccc(Cl)cc2)C1 (configuration not stated) 2.34%
Cc1ccc(Cl)cc1NC(=O)c1ccc(NC(=O)N2CCSc3ncccc32)cc1 -1.38%
Cc1ccc(OCC(=O)Nc2nnc(SCc3cc(=O)c4ccccc4[nH]3)s2)cc1C 5.32%
COc1ccccc1C(=O)n1nc(-c2cccnc2)nc1NCc1ccccc1 -1.4%
Cc1cccc(-c2nc3c4ccccc4nc(N4CCN(c5ccc(F)cc5)CC4)n3n2)c1 -1.28%
CN(C(=O)CSc1nc2ccccc2n1CC(=O)N(C)C1CCCCC1)c1ccccc1 16.3%
Cc1ccc2c(CNC3CCCC3)c(C(=O)O)n(Cc3ccc(F)cc3)c2c1 -3.48%
Cc1ccc(C)c(NC(=O)c2cc(S(=O)(=O)NCCc3ccccc3)ccc2F)c1 6.26%
COc1ccc(NC(=O)C2CCN(S(=O)(=O)c3cc(-c4noc(C)n4)ccc3C)CC2)cc1 -1.63%
Cc1cccc(NC(=O)CN2C(=O)CCn3nc(-c4cccn4C)cc32)c1C 2.83%
CCCCNC(=O)CCn1c(=O)c2ccccc2n(Cc2cccc(Cl)c2)c1=O -16.1%
Cc1noc(/C=C/c2ccccc2F)c1S(=O)(=O)N1CCC(C(=O)Nc2ccc(C#N)cc2)CC1 1.01%
CCOC(=O)C1CCCN(C(=O)c2ccc3c(c2)N(Cc2ccc(Cl)cc2)C(=O)c2ccccc2S3=O)C1 (configuration not stated) 0.762%
O=C(CSc1nc2ccsc2c(=O)n1-c1ccc(Br)cc1)NCc1ccccc1 -7.71%
Cc1ccccc1C(=O)N1CCC(N2CCN(Cc3ccc(F)cc3)C(=O)C2=O)CC1 7.15%
O=C(Nc1cccc(C(F)(F)F)c1)Nc1cccs1 -8.67%
O=C(CSc1nnc2scc(-c3ccccc3)n12)Nc1ccc(Cl)cc1 -7.6%
CCOC(=O)c1ccc(NC(=O)c2ccc(CN3C(=O)CCn4nc(C)cc43)cc2)cc1 3.31%
CCCCN(CC)C(=O)C1CCCN(c2ncnc3c2nc2n3CCCCC2)C1 (configuration not stated) 4.64%
CCOc1ccc(CNC(=O)CCn2c(=O)c3cccn3c3ccc(F)cc32)cc1 -1.65%
O=C(Cn1c(=O)c2ccccc2n2nncc12)Nc1cccc(F)c1 -0.744%
O=C(NCc1nc2ccccc2[nH]1)c1cccc(Cl)c1 -3.8%
CCOC(=O)c1c(C)[nH]c(C)c1S(=O)(=O)N(C)CC(=O)NCc1cccc(Br)c1 -9.23%
COc1ccc(NC(=O)NCCn2nnc3cc(S(=O)(=O)N(C)C)ccc32)cc1 0%
CCc1cccc(C)c1NC(=O)CCCN1C(=O)C(c2ccccc2)Oc2cccnc21 (configuration not stated) -4.77%
Cc1ccccc1Cn1cnc2nc3c(cc2c1=O)CC(C)CC3 (configuration not stated) -0.611%
CCc1cccc(C)c1NC(=O)CCCn1nc(C)c2sc3ccccc3c2c1=O 3.98%
CCOc1ccc2nc(N3CCC(C(=O)Nc4cc(C)ccc4C)CC3)sc2c1 0.867%
Cc1ccc(Cl)cc1NC(=O)CCn1c(=O)c2cccn2c2cccnc21 0.765%
O=C(NC1CCCCC1)c1ccc(CSc2nc3ccncc3n2Cc2ccccc2F)cc1 -2.55%
COc1ccc(NC(=O)CSc2nc(-c3cccs3)cc(C(F)(F)F)n2)c(OC)c1 -17%
Cc1ccc(NC(=O)Cn2cc3c(n2)CCCC3)c(C)c1 3.46%
COCCCNC(=O)c1ccc2c(c1)nc1n2CCCCC1 6.83%
O=C(CSCc1cnn(-c2ccccc2)c1-n1cccc1)NCc1ccc(F)cc1 -4.94%
CCN(CC)CCCNC(=O)CSc1nc(-c2ccc(OC)cc2)cc(C(F)(F)F)n1 0.192%
CCc1ccc(NC(=O)CSc2ccc(-c3cccs3)nn2)cc1 0.613%
Oc1c(C(c2ccccc2Cl)N2CCN(Cc3ccccc3)CC2)sc2nc(-c3ccco3)nn12 (configuration not stated) 0.644%
Cc1noc(Cn2c(=O)c3cc4c(cc3n(CC(=O)Nc3ccccc3F)c2=O)OCO4)n1 -5.65%
CCOC(=O)C1CCC(CN(Cc2ccc(OC)cc2)S(=O)(=O)c2ccc(F)c(C(=O)Nc3cc(C)ccc3C)c2)CC1 (configuration not stated) 6.09%
CCOC(=O)c1cnc2ccc(OCC)cc2c1N1CCN(c2ccccc2F)CC1 -23.8%
CCOc1ccc(NC(=O)c2ccc3snnc3c2)cc1 -8.96%
Cc1nc(N2CCCC2)c2c(C(=O)Nc3ccc(Br)cc3F)c(C)oc2n1 2.92%
Cc1ccccc1C(=O)Nc1nc(-c2ccc(Br)cc2)ns1 -8.63%
COc1ccc(-c2csc3nc(-c4ccccc4)oc(=O)c23)cc1OC -8.2%
CCOC(=O)c1c(C)n(-c2ccccc2)c2ccc(OC(=O)c3cccc(Cl)c3)cc12 -5.42%
CC(C)NC(=O)C1CCC(Cn2c(=O)c3sccc3n(CC(=O)Nc3ccccc3)c2=O)CC1 (configuration not stated) 1.42%
CC(C)Oc1ccc(CNC(=O)C2CCN(C(=O)N3CC(C)Oc4ccccc43)CC2)cc1 (configuration not stated) 1.31%
Cc1cccc(-c2nc(CSc3nncn4c3cc3sccc34)c(C)o2)c1 -1.19%
CCOC(=O)c1ccc(CN(Cc2ccccc2)S(=O)(=O)c2ccc(Cl)cc2)cc1 -9.2%
FC(F)(F)c1cc(-c2cccc(Br)c2)nc2ncnn12 -3.71%
CCOc1ccc(NC(=O)c2ccc3c(SCC(=O)O)c4c(nc3c2)CCC4)cc1 0.187%
COc1ccc(OC)c(C2c3c(-c4ccc(Br)cc4)n[nH]c3C(=O)N2c2ccc(Cl)cc2)c1 (configuration not stated) -12.4%
COc1ccccc1C(=O)Nc1ccc(NC(=O)c2cccs2)cc1 7.67%
COc1ccc(Nc2cc(C(=O)NCCCN(C)Cc3ccccc3)c3ccccc3n2)c(OC)c1 -14.9%
CCOc1ccc(S(=O)(=O)NCC(c2ccco2)S(=O)(=O)c2ccc(C)cc2)cc1 (configuration not stated) 0.884%
COc1ccccc1NC(=O)N1CCN(c2nnc(C)c3c(C)n(-c4ccc(Cl)cc4)nc23)CC1 -10.7%
O=C(Nc1cccc(C(F)(F)F)c1)N1CCC(CN2CCCCCC2)CC1 -7.17%
CCOc1ccccc1NC(=O)COC(=O)c1cn(CC)c2nc(C)ccc2c1=O 9.59%
COc1cc(-c2nc3ccccn3c2Nc2ccccc2C)ccc1O 4.19%
COc1ccc(CC(=O)NCCc2sc(-c3ccc(Cl)cc3)nc2C)cc1OC -9.73%
COc1ccccc1CNS(=O)(=O)c1ccc(-c2cc(C(F)(F)F)on2)s1 -11.2%
CC1CCN(c2cc3c(cc2F)c(=O)c(S(=O)(=O)c2cccc(Cl)c2)cn3Cc2ccccc2)CC1 0.353%
Cn1nc(-c2ccccc2F)c2cc(C(=O)NCc3ccc(Cl)cc3)sc21 -11%
COc1ccc(NC(=O)C(=O)NCCc2sc(-c3ccc(Cl)cc3)nc2C)cc1 0.0803%
COc1ccc(C2=C(C(C)=O)Sc3nnc(-c4ccc(C)cc4)n3N2C(C)=O)cc1OC -1.29%
